Experimental data as given in patent publication US5898069A, “Phosphate assay” (Medical Research Council, priority 1993, dated 1999).

Tests used:
[1] = Fluorescence titration of Pi to labelled PBP to obtain the dissociation constant; assay type: binding
Experimental: The solution at 20° C. contained […] MDCC-PBP, 1 mM MgCl2, 10 mM PIPES pH 7.0. Aliquots of Pi were added and the fluorescence emission was measured at 465 nm with excitation at 425 nm. The data was corrected for the small amount of dilution;
The solution at 25° C. in 10 mM PIPES, pH 7.0, 1 mM MgCl2 contained 0.28 μM MDCC-PBP. Aliquots of Pi were added and the fluorescence emission was measured as in FIG. 3.
The fluorescence titrations of Pi with CPM-PBP (and MDCC-PBP) were fitted to the following equations using Enzfitter software:
Ratio of fluorescence at a given [Pi ] to that at zero Pi =(Q[Ep ]+[E]-[Ep ])/[E] where
[E ]P=([P]+[E]+K-√(([P]+[E]+K)^2 -4[P][E]))/2
[E]=concentration of CPM-PBP
Q=ratio of fluorescence for CPM-PBP.Pi to that for the unliganded CPM-PBP
The product was characterized in several ways. […] The dissociation constant was determined by titrating Pi at low [MDCC-PBP] and measuring fluorescence (FIG. 4). […] Because Pi binding is very tight, these dissociation constants can be considered only approximate: the fluorescence titration could not be done at sufficiently low concentrations to obtain accurate values of Kd.

[2] = Pi dependent fluorescence change of labelled PBP in various solution compositions; assay type: binding; conditions: 100 μM Pi added, 7 μM CPM-PBP
Experimental: 3.2 μM MDCC-PBP was in 10 mM PIPES, 1 mM MgCl2 (pH 7.0) at 22° C. Pi was added to 50 μM;
Because very small levels of Pi contamination can affect the observed change on adding Pi and because of variability in the protein activity, the maximum percent increase of fluorescence varies from 400-500%0 Although PBP is very specific for Pi (Luecke & Quiocho, 1990), it was to be used as a probe in the presence of other phosphate species, such as esters or purine nucleotides and so it was important to know at what levels these might interfere with Pi measurements. Several Pi analogues were also tested (Table 2) and only arsenate and vanadate produced significant increases. For a titration of arsenate in a solution of MDCC-PBP, the fluorescence change was used to obtain a dissociation constant of 3 μM. In all cases except arsenate, when subsequently Pi was added, the full fluorescent change was observed. The Pi dependent fluorescence change was measured for a variety of conditions at a single concentration of Pi (Table 2). The change is only slightly affected by pH (7-8) or ionic strength.
The solutions contained 2 μM MDCCPBP (except for [b] 10 μM and [c]
3.2 μM) in 20 mM PIPES (pH 7.0) except where indicated. The solutions
in B had 100 μM Pi added to produce the indicated fluorescence
change. […]

[3] = Stopped-flow kinetics of Pi binding to labelled PBP and its release; conditions: pH 70, 20° C., low ionic strength
Experimental: A. 0.1 μM MDCC-PBP (mixing chamber concentration) in 10 mM PIPES, pH 7.0 was rapidly mixed at 21° C. with different concentrations of Pi in this buffer in a stopped flow apparatus, while fluorescence emission was monitored using a 455 nm cut-off filter, with excitation at 436 nm using a mercury lamp. The curve show a time course with 0.25 μM Pi. […] The best-fit single exponential (65.3 s^-1) is shown by the dashed line, almost completely hidden by the experimental curve.
B. The release kinetics were measured by rapidly mixing 0.125 μM Pi, 0.25 μM MDCC-PBP with 10 μM wild-type PBP (mixing chamber concentrations) at 22° C. Other conditions were as above The best-fit single exponential (21.4 s^-1) is shown by the dashed line, almost completely hidden by the experimental curve;
In order to use the probe to measure Pi release from ATPases and GTPases in real time it was important to know the kinetics of Pi interaction with the labeled protein. Because of the fast rates only part of the exponential is observed: a significant proportion of the reaction occurs during the dead time of the instrument (i.e. the time taken for the solution to flow between mixing and the observation chamber).
The dissociation rate of the MDCC-PBP.Pi complex was measured directly in the stopped flow apparatus by rapid mixing of this complex with excess wild-type PBP. […]

B1: CPM-PBP: A197C mutant of E. coli phosphate binding protein labelled on the cysteine with CPM (conjugate, UniProt P0AG82 26-346, looked up, variant A197C)
Phosphate-binding protein PstS: EASLTGAGATFPAPVYAKWADTYQKETGNKVNYQGIGSSGGVKQIIANTVDFGASDAPLSDEKLAQEGLFQFPTVIGGVVLAVNIPGLKSGELVLDGKTLGDIYLGKIKKWDDEAIAKLNPGLKLPSQNIAVVRRADGSGTSFVFTSYLAKVNEEWKNNVGTGSTVKWPIGLGGKGNDGIAAFVQRLPGAIGYVEYCYAKQNNLAYTKLISADGKPVSPTEENFANAAKGADWSKTFAQDLTNQKGEDAWPITSTTFILIHKDQKKPEQGTEVLKFFDWAYKTGAKQANDLDYASLPDSVVEQVRAAWKTNIKDSSGKPLY
modifications: CPM fluorophore label on cysteine
- enhancement (fluorescence, titration) ([1]; pH 7.0 (10 mM PIPES)): 63%
- enhancement (fluorescence, titration) ([1]; pH 8.0 (10 mM Tris HCl)): 105%
- % fluorescence increase ([2]; 10 mM Tris-HCl (pH 8.0), 50 mM NaCl): 63%
- % fluorescence increase ([2]; 10 mM Tris-HCl (pH 8.0), 100 mM NaCl): 45%
- % fluorescence increase ([2]; 10 mM Tris-HCl (pH 8.0), 500 mM NaCl): 32%
- % fluorescence increase ([2]; 20 mM PIPES (pH 7.0)): 37%
- % fluorescence increase ([2]; 20 mM Tris-HCl (pH 7.0)): 44%
- % fluorescence increase ([2]; 20 mM Tris-HCl (pH 7.5)): 60%
- % fluorescence increase ([2]; 20 mM Tris-HCl (pH 8.0)): 69%
- Pi binding rate constant [3]: 3.6e+07 M⁻¹ s⁻¹
